Measured values published in PubChem BioAssay AID1347417 (National Center for Advancing Translational Sciences (NCATS), 2020).
In all, about 120,000 compounds went through this assay and about 5,300 (4.4%) were called active. Inconclusive results, whose numbers are uncertain, are shown with a selection of clear calls. Calls come from the whole dose curve; as a rule, active = well fitted inhibition curve with a large enough effect; inconclusive = small, poorly fitted or top-dose-only effect; inactive = no such curve, though single readings can be large or run the other way. Potencies of inconclusive entries are doubtful fits and often do not repeat.

Experiment: qHTS Primary assay for Inhibitors of Plasmodium falciparum Dd2 growth in vitro; note: nearly all actives have a fitted effect of over 65% in size;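 for activity, negative = inhibition: plate controls were DMSO vehicle for no effect and reference drug for full effect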
Conditions: P. falciparum Dd2 growth, SYBR Green, 72 h; activity, negative = inhibition: at 28.9 µM (top of the series) unless noted; series mostly up to 28.9 µM
Method in brief: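 Readout: SYBR Green fluorescence, 485 nm excitation, 535 nm emission, after ~16 h lysis at 37C. Before that, Dd2-infected red cells (2.5% hematocrit) grew 72 h with compound, 29 uM top final concentration.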
Potency is the fitted concentration of half-maximal effect; tags give direction and shape of the fitted curve.

SMILES	Potency	activity, negative = inhibition	outcome
CCCN1CCN(CCCNC(=O)c2ccc3c(c2)sc2nc(-c4ccc(C)cc4)cn23)CC1	inconclusive: 0.794 µM [inhibitor, partial curve, poor fit]	–	–
CN(C(=O)c1ccc2c(c1)N(Cc1ccccc1F)C(=O)c1ccccc1S2)C1CCCCC1	inconclusive: 17.8 µM [inhibitor, single point]	–	–
COc1ccccc1N1CCN(c2nc3ccc(C)cc3nc2-n2nc(C)cc2C)CC1	inconclusive: 17.8 µM [inhibitor, single point]	–	–
O=C(Nc1ccc2c(c1)OCO2)C1CCCN(c2cn[nH]c(=O)c2)C1 (stereo not given)	inconclusive: 17.8 µM [inhibitor, single point]	–	–
Oc1ccc(-c2nc(C3CC3)nc3c2CN(CC2CCCCC2)CC3)cc1	inconclusive: 1.12 µM [inhibitor, full curve, poor fit]	–	–
CCOC(=O)c1c(C)n(-c2ccccc2)c2ccc(OC(=O)c3ccc(OCC)c(OCC)c3)cc12	inconclusive: 17.8 µM [inhibitor, single point]	–	–
COc1ccccc1NC(=O)CCn1nc(-c2ccccc2)c2ccccc2c1=O	inconclusive: 17.8 µM [inhibitor, single point]	–	–
CCC1=C(C(=O)OC)C(c2ccccc2F)N2C(CC(=O)NCCc3cccs3)=CSC2=N1 (stereo not given)	inconclusive: 17.8 µM [inhibitor, partial curve, poor fit]	–	–
O=C(Cc1ccccc1)N1CCOC2(CCN(C(=O)c3ccccc3)CC2)C1	–	inactive: 13.5%	–
COc1ccc(CN2C[C@H](O)C[C@H]2c2nc(CS(=O)(=O)c3ccc(F)cc3)no2)cc1	–	inactive: -22%	–
CCC(=O)N(C1CCOCC1)C1CCN(Cc2ccc(C)cc2)CC1	inconclusive: 3.98 µM [inhibitor, single point]	–	–
Cc1nn(-c2ccc(F)cc2)c(Oc2ccccc2)c1CCC(=O)N(C)C(C)C	–	inactive: -23.4%	–
COc1ccc(C(=O)N2CCc3nc(C)nc(-c4ccc(OC)cc4)c3C2)cc1	–	inactive: -9.06%	–
COc1ccc(C2=Nn3c(nc4sc(C(=O)Nc5cccc(C)c5)c(C)c4c3=O)SC2)cc1	inconclusive: 1 µM [inhibitor, partial curve, poor fit]	–	–
COc1ccc(-c2cc(N3CCC(NC(=O)CCc4ccccc4)CC3)n[nH]2)cc1	inconclusive: 1.26 µM [inhibitor, partial curve, poor fit]	–	–
O=C(NC[C@H]1O[C@@H](CC(=O)N2CCN(c3ccccn3)CC2)[C@H](O)[C@@H]1O)Nc1ccccc1	–	inactive: 7.88%	–
COc1cccc(-n2c(SCC(=O)N3CCCCC3)nc3c([nH]c4ccccc43)c2=O)c1	–	inactive: -2.77%	–
O=C(c1ccccc1OCC1CCCN(Cc2ccc(F)cc2)C1)N1CCCCC1 (stereo not given)	inconclusive: 1.58 µM [inhibitor, partial curve, poor fit]	–	–
CCOc1cc(=O)n2c(c1C(=O)Nc1cc(OC)c(Cl)cc1OC)CCCC2	–	inactive: -4.56%	–
O=C([C@@H]1C[C@H](c2ccc(F)cc2)N(Cc2ccccc2Cl)C1)N1CC(O)C1	inconclusive: 31.6 µM [inhibitor, single point]	–	–

SMILES	Potency	activity, negative = inhibition	outcome
O=C(Nc1c(C(=O)N2CCC(N3CCCCC3)CC2)oc2ccccc12)c1c(F)cccc1F	inconclusive: 17.8 µM [inhibitor, single point]	–	–
Oc1ccccc1CN1CC(CNc2cccnc2)C2(C1)CN(c1ccccc1)C2 (stereo not given)	inconclusive: 1.12 µM [inhibitor, full curve, poor fit]	–	–
Cn1cc(S(=O)(=O)c2ccccc2)c(=O)c2cc(F)c(N3CCN(c4ccc(F)cc4)CC3)cc21	inconclusive: 2.24 µM [inhibitor, full curve]	–	–
Cc1ccc(-c2nnc(Nc3ccc(Cl)cc3)c3ccccc23)cc1S(=O)(=O)N1CCOCC1	inconclusive: 12.6 µM [inhibitor, partial curve, poor fit]	–	–
O=C(c1ccco1)N1CCC2(CC1)CC(OCC1CC1)CCO2 (stereo not given)	inconclusive: 0.0631 µM [inhibitor, single point]	–	–
Cc1ccc(Cn2c(C(=O)O)c(CNCc3cccs3)c3ccc(C)cc32)cc1	inconclusive: 11.2 µM [inhibitor, single point]	–	–
NC(=O)[C@H](CC1CCCCC1)NC(=O)[C@@H]1CN(S(=O)(=O)c2ccccc2)CCN1C(=O)c1cccs1	inconclusive: 11.2 µM [inhibitor, partial curve, poor fit]	–	–
O=C(c1ccccc1OCC1CCCN(Cc2cccnc2)C1)N1CCCCC1 (stereo not given)	–	inactive: -8.37%	–
COc1ccc(NC(=O)C(C)C2CCOCC2)c(C)c1 (stereo not given)	–	–	inactive
CCN(CC)C(CNc1nc(CCN)nc2ccccc12)c1ccco1 (stereo not given)	inconclusive: 11.2 µM [inhibitor, single point]	–	–
CCCn1c(C)c(CC(=O)NCCn2cccn2)c2c1CC(C)(C)CC2=O	–	–	inactive
NC(=O)C1CCN(c2cc(-c3noc([C@@H]4CCCN4Cc4ccc(F)c(F)c4)n3)ccn2)CC1	inconclusive: 14.1 µM [inhibitor, partial curve, poor fit]	–	–
CC(C)(C)OC(=O)N1CCC(c2c(C(=O)NCc3ccc4c(c3)OCO4)cnn2-c2ccccc2Cl)CC1	inconclusive: 12.6 µM [inhibitor, single point]	–	–
CCN(CC)C(=O)Cc1cccn1-c1ccc(Cl)cc1	–	inactive: -32.4%	–
NC(=O)Cc1c[nH]c2ncc(-c3cccc(OC(F)(F)F)c3)cc12	inconclusive: 31.6 µM [inhibitor, single point]	–	–
Cc1ccc(Cl)cc1N1CCN(C(=O)c2cccn2-c2nnc(N3CCCC3)s2)CC1	inconclusive: 11.2 µM [inhibitor, single point]	–	–
CN(C(=O)c1cccnc1)C(Cc1ccc(F)cc1F)C1CCN(C(=O)C2(C)CCCCC2)CC1 (stereo not given)	–	inactive: -2.46%	–
Cn1nc(C(=O)Nc2cccc(-c3nnc4n3CCCC4)c2)c2ccccc21	inconclusive: 5.62 µM [inhibitor, partial curve, poor fit]	–	–
COc1ccc(-c2nnc(CCC(=O)N3CCCCC3)c(=O)[nH]2)cc1	inconclusive: 2.24 µM [inhibitor, full curve]	–	–
COc1ccc(CN2CC[C@H](c3nc4ccc(OC)cc4[nH]3)C2)cc1	inconclusive: 10 µM [inhibitor, partial curve, poor fit]	–	–
